# Results: PMC12136788
# The list shows a part of the results.
# T1: UNK ZnF1-3 (human, UniProt Q9C0B0 31-174)
# T1 sequence: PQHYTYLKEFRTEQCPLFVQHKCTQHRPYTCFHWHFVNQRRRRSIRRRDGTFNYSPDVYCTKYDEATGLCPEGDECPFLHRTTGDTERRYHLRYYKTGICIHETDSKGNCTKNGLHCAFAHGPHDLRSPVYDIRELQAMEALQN
# B1: chr1:163115887:163115888:-_ENSG00000143248_ENST00000313961|hu_hu|motif|central (ssRNA)
# RNA: GGGAGUUCUACAGUCCGACGAUCUUAGAAAAAAUUCUAGCAAGACUUAUAAUCAUGAAAUACAGAAUUAAAAGUUUAAACCGGCCAAAAGUCCUAUGGCCUAUUAUUUAGCUGUGAAUGAGACACGUCAGGAGUAUAAAUCUGCAACAGAGGAUUGAGCAUCA
# B2: chr4:140309118:140309119:+_ENSG00000164134_ENST00000296543|hu_hu|motif|central (ssRNA)
# RNA: GGGAGUUCUACAGUCCGACGAUCAUAUCCAGGAGGCAUGAAAGCCAAAGCAUAAGGGAAAAGCUUAUGACAAUUUGCUCGGUAAAUUUCAGCAGCUUCUUUACAGUCUCCUAGGCUACCAUCAUACAAGGCUUCCAAUACCUCCAACAGAGGAUUGAGCAUCA
# B3: chr11:70340070:70340071:+_ENSMUSG00000018286_ENSMUST00000018430|mus_mus|FALSE|FALSE (ssRNA)
# RNA: GGGAGUUCUACAGUCCGACGAUCCAGAUCUUCUCUGUACCGGUAACACAUCUCCUUAAAGAGACUGGCGGCUGUGUGGACUAGUGGAGGCUCGUUCAGUUCAAUACUGUGGAAACCAAGCUGGUAAGUGACAGCGUCUGCCACCAACAGAGGAUUGAGCAUCA
# B4: chr11:21042598:21042599:+_ENSMUSG00000020134_ENSMUST00000093290|mus_mus|FALSE|FALSE (ssRNA)
# RNA: GGGAGUUCUACAGUCCGACGAUCGCUGUCAUGAGUAUAUUCAACCACCACCGUCUGGGCUCGAGAUAAAGUAUAUGAUAUGCUAUGCUGGUCCUUGUUGCUUAUUGCCUUGGCAGCCUGAGGAGUACAUGCAAUGUGCACGGUCAACAGAGGAUUGAGCAUCA
# B5: chr3:76513020:76513021:+_ENSMUSG00000034098_ENSMUST00000038364|mus_mus|FALSE|FALSE (ssRNA)
# RNA: GGGAGUUCUACAGUCCGACGAUCCGCACUACAGAGAGUGGUUUCAGCUUUGUCUCACUGUCAAUUUCCCUAGAAGUGGUUCUUUCUGUGCAGACACAGUCAUGCUCCUUUUUCAGAACUGAGAAAGCUCCUGACUUAUGUAACCAACAGAGGAUUGAGCAUCA
# B6: chr14:78183846:78183847:+_ENSG00000119705_ENST00000557342|hu_hu|motif|central (ssRNA)
# RNA: GGGAGUUCUACAGUCCGACGAUCGCAGUCUCAAAAAUCUUUCUUUUCAUCAUCAGAUGUUUGCGGAAGUUUUGGCCUUCGGGUGUGAACCUGGACCUUUACUCCAUCUAUAAUAUGAUUUUCCUGUUGUAGUGCAUUCCGAAGCAACAGAGGAUUGAGCAUCA
# B7: 8172086_8172303_3811_CDS_ENSG00000178921_ENST00000314666|human|control|control (ssRNA)
# RNA: GGGAGUUCUACAGUCCGACGAUCUUGGAGUUCCGGAGAAGAAAAUGCUACGUAACCUUCCCCGUGCGCACUCCACACGGGCAGCACGGCGCCCUCCAUCCCUCGCAGCAUCAGGGCUGGCCCAGGCCCCACACGCACGCUGGCCAACAGAGGAUUGAGCAUCA
# B8: chrX:17854524:17854525:+_ENSMUSG00000037369_ENSMUST00000044484|mus_mus|FALSE|FALSE (ssRNA)
# RNA: GGGAGUUCUACAGUCCGACGAUCUCGAGAAUUACUCUCAUUAGUGACAAAAAGCAGAUCAAAAACCUCCACCUCACAAAUACUACAAUAAUGAGCUGGUUCUUCUUUUGUCCGCCCGUGCCAUAUGAUCUCUUUUCCUGCAGCCAACAGAGGAUUGAGCAUCA
# B9: 74671771_74678282_1214_CDS_ENSG00000168411_ENST00000361070|human|control|control (ssRNA)
# RNA: GGGAGUUCUACAGUCCGACGAUCCCUAGUGCACUUAUCAGUGAGGACCUGCAGUUGGAGUCGGCACUGUGCUGAUUCUAACUCGGCCUGUUUCCUUAGCAUCUGUUCCUUCAGUAGGGAACUUUUCAUGCGCUCCUGUUCACUCAACAGAGGAUUGAGCAUCA
# B10: chr2:232320318:232320319:-_ENSG00000115053_ENST00000322723|hu_hu|hu_hu_hu_mus_True|58_58 (ssRNA)
# RNA: GGGAGUUCUACAGUCCGACGAUCACUAUUAAAGUCUACAAAACCAAACCCUUUGGAAGAACCAGUUUCCCGAUCAGUAACUAUCCUUGCACGAACAGAGCCCUCAAAUGAUUCUUUUAAGGUCUCUUCAGUGGUAUCCUCAGACAACAGAGGAUUGAGCAUCA
# B11: chr1:243329018:243329019:-_ENSG00000143702_ENST00000366542|hu_hu|motif|central (ssRNA)
# RNA: GGGAGUUCUACAGUCCGACGAUCCAAUUUAGUAGGUGUCCACUGAGCCUCCUCCCUUUGUUCUUGUUGUUGAAGUUUUGCGGAUGUUUGCUUUACCAAAGAAGUUUCCUUAUCAGUUUCACUUUUCUCUUUUCCAGGAGCAGACAACAGAGGAUUGAGCAUCA
# B12: chr4:144460044:144460045:+_ENSG00000153147_ENST00000283131|hu_mus|hu_hu_hu_mus_False|28_68 (ssRNA)
# RNA: GGGAGUUCUACAGUCCGACGAUCACGGUCCAUAGCCUGAAGAUCAACUUGCGGAUUCCAAUCUGAGUCAUACAAAAUGACUACAUCAGCAGUUGCAAGAUUGAUGCCAAGACCACCAGCACGUGUGCUUAGCAUAAAUACAAACAACAGAGGAUUGAGCAUCA
# B13: chr9:53391610:53391611:-_ENSMUSG00000032047_ENSMUST00000034547|mus_hu|FALSE|FALSE (ssRNA)
# RNA: GGGAGUUCUACAGUCCGACGAUCCAGAGAAACAGCUCCUCCAUUGAUAUUCACUUUUUGGGGAUCAAUCUCCAACAUUUUAAUGUUUGCUAGUACAACCAGACUAAAGGCUUCAUUUACUUCCCACAUUGCAAUAUCUUCUUUCAACAGAGGAUUGAGCAUCA
# B14: 216189970_216190747_683_CDS_ENSG00000138363_ENST00000236959|human|control|control (ssRNA)
# RNA: GGGAGUUCUACAGUCCGACGAUCGUGGUUUUUGGCUGCAGCUCUCAGUAAGGUUACUCCACCAAUGUCAAUUUGCUCCACAGCCUCCUCAACAGUUACACCUGGAGAAGCCACUGUCUUUACAAAGGGAUAGAGAUUGCAGGCCAACAGAGGAUUGAGCAUCA
# Target: T1, UNK ZnF1-3
# Assay: nsRBNS (natural sequence RNA bind-n-seq); RBNS binding buffer (assumed for nsRBNS): 25 mM Tris pH 7.5, 150 mM KCl, 3 mM MgCl2, 0.01% Triton X-100, 500 ug/ml BSA, 20 U/ml SUPERase-In, 4 C; UNK is unkempt and MSI1 is Musashi-1; names of the RNAs are library labels; protein concentration not given here; high values mean tight binding
row,Binder,binding signal [enrichment R]
1,B1,0.916
2,B2,0.711
3,B3,0.817
4,B4,0.958
5,B5,0.731
6,B6,0.602
7,B7,0.976
8,B8,0.919
9,B9,0.396
10,B10,0.668
11,B11,0.395
12,B12,0.923
13,B13,1.01
14,B14,1.43
